Measurements as given in the RNAGym collection of RNA variant scans (doi:10.1093/nar/gkz1192).
Read counts are not given, so values of variants with three or more changes are uncertain.

B1: CPEB3 Ribozyme (parent)
chain: UAACAGGGGGCCACAGCAGAAGCGUUCACGUCGCAGCCCCUGUCAGAUUCUGGUGAAUCUGCGAAUUCUGCUGUAUAUCUC

Variants of: B1
Test: self-cleavage, relative activity (ratio to wild type); higher = more cleavage; in vitro, sequencing
Procedure, shortened: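 After error-prone PCR and barcoding, CPEB3 ribozyme mutant libraries were transcribed with T7 RNA polymerase at 37°C for 5 hours, then given 15 min with DNase I before an EDTA stop, and they cleaved during both steps. Reverse transcription with template switching preceded Illumina sequencing. Relative activity divides a variant's cleaved/total read fraction by the unmutated ribozyme's. At least 5 reads were required per variant, and three batches were averaged.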

Variant	self-cleavage
UAGCGGGGGGCAGCAGCAGAAGCGUUCACGUCGCAGCCCCUGUCAGAUUCUGGUGAGUCUGCGAAUUCUGCCGUAUAUCUC [A3G A5G C12A A13G A57G U72C]	0.32
UAGCUGGGGGCCACAGCAGUAGCGUUCACGUCGCUGCCCCUGACAGAUUCUGGUGAAUCUGCGAAUUCUGCUGUAUAUCUC [A3G A5U A20U A35U U43A]	0.23
UAGCUGGGGGCCACAGCAGAGGCGUCCACGUCGCAGCCCCUGUCAGAUUCUGGUGAAUCUGCGAAUCCUGCUGUAUAUCUC [A3G A5U A21G U26C U67C]	0.11
UAGCUGGGAGCCACAGCAGAAGCGUUCGCGUCGCAGCCCCUGUCAGAUUCUGGUGAAUCAGCGAAUACUGCUGUAUAUCUC [A3G A5U G9A A28G U60A U67A]	0.36
UAGCGGGGGGCCACAGCAGAAGCGUUCACGUCGCAGCCCCUGUCAGAUUCUGGUGGAUCCGCGAGUUCUGCUGUAUAUCUC [A3G A5G A56G U60C A65G]	0.58
UAGCAGGGGGCCCCAGCAGAAGCGUUCACCUCGCAGCCCCUGUCAGAUUCUGGUGAAUCUGCGAAUUCUGCUGUAUAUCUC [A3G A13C G30C]	0.37
UAGCGGGGGGCCACAGCAGAAGCGUUCACGUCGCAGCCCCUGUCAGAUUCAGGUGAACCUGCGAAUUCUGCUGUAUAUCUC [A3G A5G U51A U58C]	0.59
UAGCAGGGGGCCGCAGCAGAAGUGUUCACGUCACAGCCCCUGCCAGAUUCUGGUGAAUCUGCGAAUUCUGCCGUACAUCUC [A3G A13G C23U G33A U43C U72C U76C]	0.07
UAGCGGGGGGCCGCAGCAGAAGCGUCCACGUCGCAGCCCCUGUCAGAUUCUGGUGAAUCUGCGAAUUCUGCUGUAUAUCUC [A3G A5G A13G U26C]	0.2
UAGCGGGGGGCCACAGCAGAAGCGUUCACGUCGCAGCCCCUGUCAGAUUCUGGUGAAUCUGCGGAUUCUGCUGUAUAUCUC [A3G A5G A64G]	0.52
UAGCAGGGGGCCCCAGCAGAAGCGCUCACGUCGCAGCCCCUACCAGAUUCUGGUGAAUCUGCGAACUCUGCUGUAUAUCCC [A3G A13C U25C G42A U43C U66C U80C]	0.47
UAGCUGGGGGCCACAGCAGAAGCGUUCACGCCGCAGCCCCUGUCCGAUUCUGGUGAAUCUGCGAAUCCUGCUGUAUAUCUC [A3G A5U U31C A45C U67C]	0.24
UAGCAGGGGGCCGCGGCAGAAGCGUCCACGUCGCAGCCCCUGUCAGAUUCUGGUGAAUCUGCGAAUUCUGCUGUACAACUC [A3G A13G A15G U26C U76C U78A]	0.06
UAGCUGGGGGCCACAGCAGAAGCGUUCACGUCGCAGCCCCUGUCAGAUCCUGGUGAAUCUGCGAAUUCUGCUGUAUAUCAC [A3G A5U U49C U80A]	0.72
UAGCUGGGGGCCACAGCAGGAGCGUUCACUUCGCAGCCCCUGUCAGACUCUGGUGAAUCUGCGAAUUCUGCUGUAUAUCUC [A3G A5U A20G G30U U48C]	0.74
UAGCUUGGGGCCACAGUAGAAGCGUUCACGUCGCAGCCCCUGUCAGAUUCUGGUGAAUCUGCGAAUUCUGCUGUAUAUCUC [A3G A5U G6U C17U]	0.52
UAGCAGGGGGCCGCAGCAGAAGCGUUCACGUCGCUGCCCCUGUCAGAUUCUGGUGGAUCUGCGAAUUCUGCUGUAUAUCUC [A3G A13G A35U A56G]	0.53

Variant	self-cleavage
UAGCGGGGGGCCACAGCAGAAGCGUUCAUGUCGCAGCCCCGGUCAGAUUCUGGUGAAUCUGCGAAUUCUGCUGUAUAUCUC [A3G A5G C29U U41G]	0.16
UAGCUGGGGGCCACAGCAGAAGCGUUCGCGUCGCAGCCCCUGUCAGAUUCUGGUGAAUCUGCGAAUUCUGCUGUAUAUCUC [A3G A5U A28G]	0.85
UAGCGGGGGGCCACAGCAGAGGCGUCAACGUCGCAGCCCCUGUCAGGCUCUGGUGAAUCUGCGAAUUCUGCUGUAUAUCUC [A3G A5G A21G U26C C27A A47G U48C]	0.88
UAGCUGGGGGCCACAGCAGAAGCGUUCUCGUAGCAGCCCCUGUCAGAUUCUGGUGAGUCUGCGAAUCCUGCUGUAUAUCUC [A3G A5U A28U C32A A57G U67C]	0.09
UAGCCGGGGGCCACAGCAGAAGCGUUCACGCCGCAGCCCCUGUCAGAUUCUGGUGAAUCUGCGAAUUCUGCUGUAUAUCCC [A3G A5C U31C U80C]	0.76
UAGCGGGGGGCCACAGCAGAAGCGCUCACGUCGCAGCCCCUGUCAGAUUCUGGAGAAUCUGCGAAUUCUGCUGUAUAUCUC [A3G A5G U25C U54A]	0.6
UAGCGGGGGGCCACAGCAGAAGCGUUCACGCCGCCGCCCCUGUCAGAUUCUGGUGAAUCUGCGAAUUCCGCUGUAUAUCUC [A3G A5G U31C A35C U69C]	0.45
UAGCGGGGGGCCACAGCAGAGGCGUUCACGUCGCAGCCCCUGUCAGACUCUGGUGAAUCUGCGGAUUCUGCUGUAUAUCUC [A3G A5G A21G U48C A64G]	0.47
UAGCAGGGGGCCCCAGCAGAAGCGUUCACGUCGCGGCCCCUGUCAGAUUCUGGUGAUUCUGCGAAUUCUGCUGUAUAUCUC [A3G A13C A35G A57U]	1.03
UAGCGGGGGGCCACAGCAGAAGCGUUCACGUCGCAGCCCCUGUCAGAUACUGGUGAAUCUGCGAAUUCUGCUGUAUAUCUC [A3G A5G U49A]	0.49
UAGCGGGGGGCCACAGCAGAAGCGUUCACGUCGCAGCCCCUGUCAGAUUCUGGUGAAUCUGCGAAUUCUGCUGUAUUUCCC [A3G A5G A77U U80C]	0.71
UAGCAGGGGGCCGCAGCAGAAGCGUUCACGUCGCAGCCCCUGUCCGAUUCUGGUGAAUCUGCGAAUUCUGCCGUAUAUCUC [A3G A13G A45C U72C]	0.41
UAGCAGGGGGCCGCAGCAGAAGCGUUCACGUCGCAGCCCCUGUCAGAUUCUGGUGUAUCUGCGAAUUCUGCUGUAUAUCAC [A3G A13G A56U U80A]	0.81
UAGCGGGGGGCCACAGCAGAAGUGUUCACGUCGCAGCCCCUGUCAGAUUCUGGUGAAUCUGCGAGUUCCGCUGUAUACCUC [A3G A5G C23U A65G U69C U78C]	0.17
UAGCUGGGGGCCACAGCGGAAGCGUUCACGUCGCAGCCCCUGUCAGAUUCUGGUGAAUCUGCGAAUUCUGCUGUAUAUCUC [A3G A5U A18G]	0.85
UAGCGGGGGGCCUCAGCAGGAGCGUUCACGUCGCAGCCCCUGUCAGAUUCUGGUGAAUCUGCGAAUUCCGCUGUAUAUCUC [A3G A5G A13U A20G U69C]	0.41
UAGCGGGGGGCCACAGCAGAAGCGUUCACGUCGCAGCCCCUGACAGAUUCUGGUGAAUCUGCGAAUUCUGCUGAAUAUCUC [A3G A5G U43A U74A]	1.05
